PubChem BioAssay AID2147 (National Center for Advancing Translational Sciences (NCATS), 2009)
Several values for one entry are separate records, joined by “and”; a condition that tells them apart may be missing. Identical values can stand only once. Screen size: about 230,000 compounds; about 3,600 (1.6%) were called active. This list was built around the results that the source calls inconclusive (neither active nor inactive); the mix of calls is not that of the screen. The call rests on the fitted dose curve; in most records, active means well fitted inhibition curve with a large enough effect (not every such curve was filed as active); inconclusive means small, poorly fitted or top-dose-only effect, or another doubt; inactive means no such curve, though single readings can be large or run the other way. Where the call is inconclusive, the potency comes from a doubtful curve fit.

What follows are molecules tested against Lysine-specific demethylase 4E (Homo sapiens) (UniProt B2RXH2) (assay: qHTS Assay for Inhibitors of Human Jumonji Domain Containing 2E (JMJD2E)). Details: JMJD2E catalytic domain, FDH-coupled NADH fluorescence (FDH is formaldehyde dehydrogenase); series mostly up to 57.1 µM.
Further: nearly all actives have a fitted effect of over 50% in size.
Potency means the concentration at half of the fitted maximal effect; tags describe the fitted curve by direction and shape.

Chain of UniProt B2RXH2 (B2RXH2 whole entry, looked up, the tested form may be a part): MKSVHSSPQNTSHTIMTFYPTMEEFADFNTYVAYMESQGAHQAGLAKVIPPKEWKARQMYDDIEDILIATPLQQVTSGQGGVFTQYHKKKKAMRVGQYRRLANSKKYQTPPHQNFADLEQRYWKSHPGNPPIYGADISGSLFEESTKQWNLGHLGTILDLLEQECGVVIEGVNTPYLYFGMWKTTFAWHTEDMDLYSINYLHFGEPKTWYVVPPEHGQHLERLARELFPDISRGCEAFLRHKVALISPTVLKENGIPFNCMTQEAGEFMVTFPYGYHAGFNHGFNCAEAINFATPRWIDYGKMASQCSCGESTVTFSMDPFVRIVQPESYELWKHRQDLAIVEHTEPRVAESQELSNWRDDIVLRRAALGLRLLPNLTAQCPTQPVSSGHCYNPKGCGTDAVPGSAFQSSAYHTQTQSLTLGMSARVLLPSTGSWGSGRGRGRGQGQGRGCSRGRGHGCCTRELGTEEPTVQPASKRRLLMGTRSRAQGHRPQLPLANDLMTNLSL

| Structure (SMILES) | Potency |
| --- | --- |
| N=c1oc2ccccc2cc1C(=O)N/N=C/c1ccccc1 | inconclusive: 35.5 µM [inhibitor, single point] |
| CCNc1nc(NC(C)C)nc(N(n2cnnc2)S(=O)(=O)c2ccc(C)cc2)n1 | inactive |
| Cc1cc2cc(CN(Cc3ccco3)C(=O)NCc3ccccc3)c(=O)[nH]c2cc1C | inconclusive: 28.2 µM [inhibitor, single point] |
| COC(=O)c1ccccc1NC(=O)N1CCN(Cc2ccco2)CC1 | inconclusive: 39.8 µM [inhibitor, single point] |
| COC(=O)CCCC1=CC2=C(c3ccccc3)C(=O)C(C)(OC(=O)C3CCCC3)C(=O)C2=CN1C(CO)CO (centres undefined) | inconclusive: 20 µM [inhibitor, single point] |
| CCC(c1nnnn1C(C)(C)CC)N(CCCO)Cc1cc2cc(C)cc(C)c2[nH]c1=O (centres undefined) | inconclusive: 22.4 µM [inhibitor, partial curve] |
| O=C(Cc1ccc(Cl)cc1)NNC(=O)Nc1cccc2ccccc12 | inconclusive: 28.2 µM [inhibitor, partial curve] |
| O=C(O)CCSc1nnc(-c2ccc3c(c2)OCO3)o1 | inconclusive: 35.5 µM [inhibitor, single point] |
| O=c1oc2ccccc2cc1-c1cn(-c2ccccc2)c(=S)[nH]1 | inconclusive: 8.91 µM [inhibitor, partial curve] |
| CCN(CC)c1ccc(/C=N/NC(=O)C(O)c2ccccc2)cc1 (centres undefined) | inconclusive: 25.1 µM [inhibitor, partial curve] |
| CC(CN1CCCCC1)OC(=O)c1cc2ccccc2o1 (centres undefined) | inconclusive: 39.8 µM [inhibitor, single point] |
| COc1cc(/C=C2\CC/C(=C\c3cc(OC)c(O)c(OC)c3)C2=O)cc(OC)c1O | inconclusive: 17.8 µM [inhibitor, partial curve, poor fit] |
| CSc1nc2cc(Cl)ccc2s1 | inactive |
| CC(=O)Nc1cc(-c2ccccc2)ccc1O | inconclusive: 12.6 µM [inhibitor, partial curve] |
| CCOc1ccccc1-n1nnnc1SCC(=O)Nc1cc(C)on1 | inactive |
| COc1cc(/C=C/C(=O)OCC(=O)Nc2cc(S(=O)(=O)N3CCCCC3)ccc2C)ccc1O | inconclusive: 39.8 µM [inhibitor, single point] |
| Cc1cc(-c2ccc3ccccc3c2)n2ncnc2n1 | inconclusive: 28.2 µM [inhibitor, partial curve] |
| O=C1/C(=C\c2ccc(O)c(O)c2)C(c2ccccc2)=NN1c1ccccc1 | active: 14.1 µM |
| COc1cc(OC)cc(-c2n[nH]c(=S)n2-c2cc(OC)ccc2OC)c1 | inconclusive: 25.1 µM [inhibitor, single point] |
| CCOc1c(C)cc(-c2ncccc2O)cc1C | inconclusive: 20 µM [inhibitor, partial curve] and inconclusive: 28.2 µM [inhibitor, partial curve] |
| Cc1cccnc1NC(=S)Nc1ncccc1C | inconclusive: 39.8 µM [inhibitor, single point] |
| Cc1cc(C)n(-c2nc(SCC(=O)O)c3c4c(sc3n2)COC(C)(C)C4)n1 | inconclusive: 39.8 µM [inhibitor, single point] |

| Structure (SMILES) | Potency |
| --- | --- |
| COc1ccc(-c2nn(C)c(=O)c3ccccc23)cc1CNC(=O)NC1CCCCC1 | inconclusive: 31.6 µM [inhibitor, partial curve] |
| CCCCC(=O)NCCc1c(Cc2ccccc2)[nH]c2ccccc12 | inactive |
| CCS(=O)(=O)c1nn2c(N)c(/C=C3/C=CC(=O)C(OC)=C3)c(=O)nc2s1 | inactive |
| S=c1[nH]nc(-c2ccco2)n1/N=C/c1cccc(Cl)c1Cl | inconclusive: 28.2 µM [inhibitor, partial curve] |
| CC(C)C(=O)OCc1cn(-c2ccc(Cl)c(Cl)c2)nn1 | inactive |
| COCCNc1nc(C)nc2c1nc(-c1ccccc1)n2CCN1CCCCC1 | inconclusive: 31.6 µM [inhibitor, partial curve] |
| Cc1cc(NS(=O)(=O)c2ccc(NC(=O)C(C)Oc3ccc4c(C)cc(=O)oc4c3)cc2)no1 (centres undefined) | inconclusive: 35.5 µM [inhibitor, partial curve] |
| N#Cc1ccc(CS(=O)(=O)c2nnnn2C2CCCCC2)cc1 | inactive |
| CC(C)c1cccc2cc3c(nc12)-c1cccc(=O)n1C3 | inconclusive: 25.1 µM [inhibitor, partial curve] |
| COCCNCC(=O)C12CC3CC(CC(C3)C1)C2 | inactive |
| Cc1ccc(S(=O)(=O)/N=C2/NC(=O)/C(=C/c3ccccn3)S2)cc1 | inactive |
| CC(CN1C(C)CCCC1C)OC(=O)c1ccc(Cl)cc1Cl (centres undefined) | inactive |
| NC1=NC(=O)/C(=C/c2cn(Cc3ccccc3)c3ccccc23)S1 | inactive |
| COc1ccc(-c2cc3n(n2)CCc2nc4ccccc4n2-3)cc1 | inconclusive: 28.2 µM [inhibitor, single point] |
| CCOC(=O)N1CCC(NC(=O)c2ccc3c(c2)N(Cc2ccc(F)cc2)CCS3)CC1 | inconclusive: 28.2 µM [inhibitor, partial curve] |
| Cc1ccc(C(=O)/C=C/C(=O)O)cc1 | inactive |
| Cn1c2c(c(=O)n(C)c1=O)C(CC(=O)Nc1ccccc1)C(=O)N2 (centres undefined) | inactive |
| N#Cc1c2n(c3c(=O)n(Cc4ccc(Cl)cc4)cnc13)CCCC2 | inconclusive: 39.8 µM [inhibitor, single point] |
| CN1CCN(Cc2cc(=O)oc3cc4c(cc23)CCC4)CC1 | inconclusive: 39.8 µM [inhibitor, single point] |
| COC(=O)c1ccccc1NC(=O)CSc1nc(NC(=O)c2ccccc2)c2c(C)c(C)oc2n1 | inconclusive: 35.5 µM [inhibitor, single point] |
| Cc1cccc(OCC(=O)N/N=C/C=C/c2ccco2)c1 | inconclusive: 39.8 µM [inhibitor, single point] |
| O=C(Nc1ccc(Cl)c(Cl)c1)Nc1ccc(N2CCCC2)c(S(=O)(=O)Nc2ccccc2Cl)c1 | inconclusive: 31.6 µM [inhibitor, single point] |
